Data published in PubChem BioAssay AID1671193 (National Center for Advancing Translational Sciences (NCATS), 2021).
Values joined by “and” are separate entries in the source; they are usually repeats but may differ in a detail not shown here. Equal values may be shown once. The campaign covered roughly 150,000 compounds. About 180 (0.12%) were called active. The shares of active, inactive and inconclusive entries below differ from those in the screen. Calls follow the shape of the dose curve; as a rule, active = well fitted cell-killing curve with a large enough effect; inconclusive = small, poorly fitted or top-dose-only effect, or effect the other way; inactive = flat fitted curve, though single readings scatter. Potencies beside an inconclusive call are fits to weak or partial responses and may not hold up.

test: GF-AFC viability counterscreen for inhibitors of alpha-synuclein gene (SNCA) expression; conditions: HEK-293-SNCA-luc viability, GF-AFC fluorescence, 24 h; activity change, negative = cytotoxicity: at 57.1 µM (top of the series) unless noted; also: nearly all actives have a fitted effect of over 30% in size;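 as to activity change, negative = cytotoxicity: 0% = DMSO-treated cells and -100% = medium-only wells without cells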
How it was run: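 HEK-293-SNCA-luc cells (1500/well) plated 24 h, then exposed 24 h to a dilution series; GF-AFC added 30 min at 37C, fluorescence 405/540 nm; normalised to medium-only and DMSO wells, Hill fit.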
Potency is read from the fitted curve at half-maximal effect; tags tell the direction and shape of the fitted curve.

SMILES	Potency	activity change, negative = cytotoxicity
O=C(O)C1CCc2nc(N3CCN(C(=O)C4CCC4)CC3)sc2C1 (stereo not drawn)	inactive	–
COc1ccc(CCNC(=O)CSc2cn(CCNC(=O)c3cccc(C(F)(F)F)c3)c3ccccc23)cc1OC	inconclusive: 39.8 µM [cytotoxic, single point]	–
CNC(=O)[C@@H](Cc1ccccc1)N1CCC[C@H]1C(=O)NCc1cccnc1	inactive	–
O=c1[nH]nc(OCCCc2ccc(Cl)cc2)c(NCc2cccnc2)c1Br	inconclusive: 4.82 µM [cytotoxic, full curve]	–
CC(=O)Nc1ccc(S(=O)(=O)N2CCC(c3nnc(-c4ccc(C)cc4)o3)CC2)cc1	inconclusive: 7.08 µM [cytotoxic, partial curve, poor fit]	–
O=C(NCc1ccc(F)cc1)c1nc2cccnc2n(C2CC2)c1=O	inactive	–
O=C(c1ccco1)N1CCC[C@@]2(CCN(Cc3nccs3)C2)C1	inconclusive: 3.16 µM [cytotoxic, partial curve, poor fit]	–
CC(=O)c1cccc(NC(=O)Cn2c(Nc3cc(C)cc(C)c3)nc(C)cc2=O)c1	inconclusive: 10 µM [cytotoxic, partial curve, poor fit]	–
COc1cccc(NC(=O)CN2C(=O)CSc3ccc(S(=O)(=O)N4CCCC4)cc32)c1	inconclusive: 1.58 µM [cytotoxic, full curve, poor fit]	–
Cn1cc(-c2[nH]c3cc(NC(=O)[C@H](N)C4CCCCC4)cc4c3c2C=NNC4=O)cn1	inconclusive: 7.64 µM [cytotoxic, full curve, poor fit]	–
COc1ccc(C(=O)N[C@H]2C[C@@H](Cc3cc(-c4ccccc4)on3)C2(C)C)cc1	inconclusive: 35.5 µM [cytotoxic, partial curve, poor fit]	–
Cc1ccc(CC(=O)NCc2nnc3c(-c4nc(C(C)C)no4)cccn23)cc1	inactive	–
COCCCn1c(C(C)NC(=O)OCc2ccccc2)nc2cccnc21 (stereo not drawn)	inactive	–
Cc1cccc(-n2c(=O)c3c(c4cc(C)ccc4n3C)n(CC(=O)NCC3CCCO3)c2=O)c1 (stereo not drawn)	inconclusive: 5.01 µM [cytotoxic, partial curve]	–
O=C(c1ccccc1)N1CCC2(CC1)CCN(CCc1ccccc1)c1ccccc1O2	inactive	–
CCOc1ccc(C(=O)NCCc2sc(-c3ccc(OC)c(OC)c3)nc2C)cc1	inconclusive: 25.1 µM [cytotoxic, partial curve, poor fit]	–
Cc1ccc(C)c(N2CCN(c3ccc4cc(S(=O)(=O)N5CCC(C)CC5)ccc4n3)CC2)c1	inconclusive: 1.41 µM [cytotoxic, partial curve, poor fit]	–
Oc1ccc(NCCN2CCCC2)cc1	inconclusive: 63.1 µM [cytotoxic, single point]	–
CCOC(=O)c1ccc(N2C(=O)c3n[nH]c(C)c3C2c2ccccc2OC)cc1 (stereo not drawn)	inconclusive: 15.8 µM [cytotoxic, partial curve, poor fit]	–

SMILES	Potency	activity change, negative = cytotoxicity
COc1cccc(-c2ccc(C(=O)N3CCC(NC(=O)NC4CCCC4)CC3)cc2)c1	–	inactive: 4.8% [at 12.5 µM]
CC(=O)c1ccc(O[C@@H]2OC[C@@H](O)[C@H](O)[C@H]2O[C@]2(CO)O[C@H](CO)[C@@H](O)[C@@H]2O)c(O)c1	inconclusive: 0.582 µM [cytotoxic, partial curve, poor fit]	–
CN(Cc1cc(C2CC2)n[nH]1)c1cc(C2CC(N)C2)nc(N)n1 (stereo not drawn)	inactive	–
CN(C)c1cccc(-c2c3c(=O)n(-c4ccccc4Cl)[nH]c3cc(=O)n2C)c1	inactive and inconclusive: 15.2 µM [cytotoxic, partial curve]	–
Cc1ccsc1CN(C(=O)c1oc2ccc(F)cc2c1C)C1CCS(=O)(=O)C1 (stereo not drawn)	inconclusive: 11.2 µM [cytotoxic, partial curve, poor fit]	–
COc1ccc(NC(=O)c2c(NCc3ccc(N(C)C)cc3)sc3c2CCC3)cc1	inactive	–
COC(=O)C1=C(C)NC(C)=C(C(=O)OCCN(C)Cc2ccccc2)C1c1cccc([N+](=O)[O-])c1 (stereo not drawn)	inconclusive: 35.5 µM [cytotoxic, single point]	–
CC(=O)Nc1ccc(CN2CCN3C(=O)N(Cc4ccc(C)cc4)C[C@H]3C2)cc1	inactive	–
COc1cc(C)ccc1OCC(=O)c1ccc2c(c1)N(CCCC(=O)N1CCOCC1)C(=O)CO2	inconclusive: 3.55 µM [cytotoxic, full curve, poor fit]	–
O=C(CCCN1C(=O)c2cccnc2Oc2ccc(Cl)cc21)NCc1ccccc1F	inconclusive: 25.1 µM [cytotoxic, partial curve, poor fit]	–
COc1ccc2cc(-c3nc(-c4ccc(S(C)=O)cc4)[nH]c3-c3ccncc3)ccc2c1 (stereo not drawn)	inconclusive: 21.5 µM [cytotoxic, partial curve]	–
COc1ccc(C(=O)N2CC(Oc3ccccc3-c3nc(-c4ccccc4)no3)C2)cc1	inconclusive: 15.8 µM [cytotoxic, partial curve, poor fit]	–
O[C@H]1[C@H](NCc2ccc(OC(F)(F)F)cc2)[C@H]2CO[C@H](O2)[C@@H]1N1CCC(Cc2ccccc2)CC1	inactive	–
Cc1nc(C#Cc2ccnc(Cl)c2)c(C)n1-c1ccc(OC(F)(F)F)cc1	inconclusive: 21.2 µM [cytotoxic, partial curve, poor fit]	–
COCCOc1ccc2c(c1)ncn2-c1ccc2cccc(N3CCC(N)CC3)c2n1	inconclusive: 24.1 µM [cytotoxic, partial curve, poor fit] and inconclusive: 11.9 µM [cytotoxic, partial curve, poor fit]	–
CCc1ccc(NC(=O)CSc2nc(-c3ccccc3Cl)nc3c2Cc2c(CO)cnc(C)c2O3)cc1	inconclusive: 22.4 µM [cytotoxic, single point]	–
COc1ccccc1NC(=O)CC1CCCN(c2cnn(CC3CC3)c(=O)c2)C1 (stereo not drawn)	inactive	–
Cc1cc(Nc2cc(N3CCN(C)CC3)nc(/C=C/c3ccccc3)n2)n[nH]1	active: 29.9 µM	–
N#CC1CCN(C(=O)C2CCN(c3nccc(Nc4ccccc4F)n3)CC2)CC1	inconclusive: 3.16 µM [cytotoxic, single point]	–
